Data from ChEMBL document CHEMBL1157539, “Thousands of chemical starting points for antimalarial lead identification” (Nature, 2010).
In all, about 13,000 compounds were measured (“IFI”: median about 4, highest 2% from about 17 on). The list shows a part of the results.

test: GSK_TCMDC: Inhibition Frequency Index (IFI). The number of non-kinase HTS assays where a compound showed > 50 % inhibition, expressed as a percentage of the number of such assays in which the compound was tested (-0 is zero); format: functional

| SMILES | IFI [%] |
| --- | --- |
| COc1cccc(CN2CCCN(Cc3cccc(NC(=O)c4ccc(Cl)c(Cl)c4)c3)CC2)c1 | 5.96 |
| CC(C)NCc1ccc(-c2cccc(-c3nc4cc(C(F)(F)F)ccc4[nH]3)c2)cc1 | 5.71 |
| COc1ccc(CN2CCC(CNCc3cccc(-c4ccccc4)c3)CC2)cc1 | 8.97 |
| Cc1cccc2nc(-c3cccc(-c4cccc(CNCc5cnn(-c6ccccc6)n5)c4)c3)[nH]c12 | 1.64 |
| CC(C)COc1ccc(Cl)cc1Cc1nc(-c2nc3cccc(CN4CCN(C)CC4)c3[nH]2)cs1 | 10.3 |
| CC(C)C(=O)NC(c1ccc(Cl)cc1)c1ccc2cccnc2c1O (stereo unspecified) | 14.3 |
| COc1ccc(CCN(C)CCOc2ccc(NC(=O)c3cccc4c(=O)c5cc(SC)ccc5[nH]c34)cc2)cc1OC | 3.45 |
| O=C(Nc1ccc(-c2cccc(-c3nc4ccccc4[nH]3)c2)cc1)NC1CC1c1ccccc1 (stereo unspecified) | 7 |
| CCCN1CCN(CCCNC(=O)c2cc3c(Cl)nc4ccc(C)cc4c3s2)CC1 | 5.13 |
| O=C(Nc1ccc(F)cc1)N1CCCN(c2ccnc3cc(Cl)ccc23)CC1 | 1.54 |
| CCN1CCN(c2cc(C)c3cc(NC(=O)c4cccc(Cl)c4)ccc3n2)CC1 | 3.55 |
| CN1CCN(CC(=O)Nc2cccc(-c3ccc(-c4nc5cc(F)ccc5[nH]4)cc3)c2)CC1 | 4.5 |
| O=C(NCCCN1CCCCC1)c1cccc(Nc2nccc(Nc3ccc(Oc4ccccc4)cc3)n2)c1 | 2.92 |
| Cc1ccc(NC(=O)c2ccc(CN3CCCN(CCC(C)C)CC3)cc2)cc1C | 3.97 |
| COc1ccc(-c2nc(NC(=O)CSc3ccc([N+](=O)[O-])cc3)sc2C)cc1 | 7.21 |
| CCCN(CCC)S(=O)(=O)c1ccc(C(=O)Nc2nc3ccc(-c4cc(=O)[nH]c(Nc5ccccc5Cl)n4)cc3[nH]2)cc1 | 4.17 |
| COc1ccc2ncc(F)c(CCN3CCC(NCc4cnc5c(c4)NC(=O)CS5)CC3)c2c1 | 1.45 |
| OC(CN1CCN(c2cccc(Cl)c2)CC1)C(c1ccccc1)c1ccccc1 (stereo unspecified) | 0.75 |
| COc1ccc2nccc(N3CCCN(CCNCc4ccc5c(n4)NC(=O)CS5)CC3)c2n1 | 2.8 |
| O=C(NCCCCN1CCN(c2cccc(Cl)c2Cl)CC1)c1ccc2c(c1)CCN(C1CCC1)CC2 | 10 |
| COc1ccc(CN2CCCN(Cc3cccc(NC(=O)c4ccc5ccccc5c4)c3)CC2)cc1 | 5.52 |
| CCOC(=O)c1ccc(N2CCN(c3cc(Cl)ccc3C)CC2)c(NC(=O)Nc2ccc(Cl)c(Cl)c2)c1 | -0 |
| CN(C)CCCOc1c(C(C)(C)C)cc(-c2cc(C(C)(C)C)c(OCCCN(C)C)c(C(C)(C)C)c2)cc1C(C)(C)C | 4.93 |

| SMILES | IFI [%] |
| --- | --- |
| COc1ccccc1Cc1c(C)nc2nc(N)nc(N)c2c1C | 2.24 |
| CC(C)(CNC(=O)[C@@H]1CCCN(CCOc2ccc(Cl)cc2)C1)c1nc(-c2ccc(Cl)c(O)c2)c(-c2ccncc2)[nH]1 | 2.92 |
| Cc1nc(C(C)Nc2nncc(-c3ccc(Cl)cc3)n2)cs1 (stereo unspecified) | 0 |
| COc1ccc(Nc2nccc(NCCNC(=O)Nc3ccccc3F)n2)cc1 | 3.08 |
| O=C(Nc1cccc(-c2ccc(NCCCN3CCCC3)nc2)c1)c1ccccc1 | 0 |
| Cc1cc(NC(=O)CCN2CCN(c3cccc(Cl)c3Cl)CC2)ccc1N1CCN(C(C)C)CC1 | 13.2 |
| CC(C)(CNCc1ccc(F)c(F)c1)c1nc(-c2ccc(Cl)c(O)c2)c(-c2ccncc2)[nH]1 | 7.8 |
| CC(C)N1CCN(C(CN2CCN(CCCOc3cccc4ccccc34)CC2)c2ccc(F)cc2)CC1 (stereo unspecified) | 11.5 |
| CCCc1cc2c3c(N)nc(N)nc3ccc2n1C(CC)CC | 8.84 |
| Cc1cccc2nc(-c3ccc(-c4cccc(CNCc5ccccc5)c4)cc3)[nH]c12 | 5.77 |
| Cc1cc(NCCC(=O)NCCOc2ccccc2)nc(NCCc2ccccc2)n1 | 6.82 |
| CC(=O)c1sc2ccccc2c1O | 1.47 |
| Cc1ccc(/C=C/C(=O)NC2CCC(N3CCC(c4ccccc4C)CC3)CC2)cc1F (stereo unspecified) | 13.3 |
| COc1ccc2nccc([C@@H](O)CN3CCC(NCCOc4cc(C(F)(F)F)ccc4F)CC3)c2c1 | 2.21 |
| CC(C)Cc1c(O)nc(SCCN2CCOCC2)[nH]c1=O | -0 |
| COc1ccc(C(=O)Cn2nc(-c3ccc(Cl)cc3)ccc2=O)c(OC)c1 | 3.7 |
| COc1cccc(CCc2ccc(O)c3c2C[C@H]2C[C@H]4[C@H](N(C)C)C(O)=C(C(N)=O)C(=O)[C@@]4(O)C(O)=C2C3=O)c1 | 8.41 |
| O=c1cc(NCCCNCc2ccc(C(F)(F)F)c(F)c2)[nH]c2ccccc12 | 5.07 |
| O=S(=O)(c1cccc(C(F)(F)F)c1)N1CCC(CO)(Cc2cccc(C(F)(F)F)c2)CC1 | 4.76 |
| COc1ccc2nc(N)nc(C)c2c1 | 2.24 |
| Nc1ccc(-c2cc(Cl)cc(Cl)c2)cc1-c1cc2ccccc2[nH]1 | -0 |
| O=[N+]([O-])c1ccc(Nc2nc(N/N=C/c3cc(Cl)cc(Cl)c3O)nc(Nc3ccccc3)n2)cc1 | 4.83 |
| O=C(CCC1CCCCC1)NCCNc1cccc2ccccc12 | 1.47 |

| SMILES | IFI [%] |
| --- | --- |
| COc1cc2nccc(Nc3ccc4c(cnn4Cc4ccccc4F)c3)c2cc1OC | 3.76 |
| Cc1onc(-c2ccccc2Cl)c1C(=O)Nc1cc(Cl)c(Cl)cc1Cl | 1.45 |
| Cc1ccc2[nH]c(-c3ccccc3)cc(=NN=Cc3cccnc3)c2c1 | 1.52 |
| CCN(CC)CCCN(C(=O)Nc1c(Cl)cncc1Cl)c1nc(-c2ccc(F)cc2)cs1 | 9.52 |
| CN1CCOc2ccc(Nc3nnc(-c4cccc(-c5cccnc5)c4)o3)cc2C1 | 0 |
| COc1c(C2CCN(CCCCNC(=O)c3cccc(-c4ccc(C(F)(F)F)cc4)c3)CC2)ccc2c1CCCC2 | 10.5 |
| CN(C)Cc1ccc(-c2cccc(NC(=O)c3ccc(Cl)cc3)c2)cc1 | 3.92 |
| CC(C)C[C@H](NC(=O)c1ccc(OCCN2CCOCC2)cc1)C(=O)NC(/C=N/N1CCCC1=O)C(C)C (stereo partly specified) | 5.45 |
| O=C(Nc1ccc([N+](=O)[O-])cc1)Nc1cc(OCC(F)(F)F)cc(OCC(F)(F)F)c1 | 9.6 |
| COc1cc(Cl)c(C)cc1N(Cc1ccccc1-c1ccccc1)S(=O)(=O)c1ccc(C(F)(F)F)cc1 | 0.7 |
| O=C(Nc1cc(Cl)cc(Cl)c1)Nc1ccccc1C(=O)NC1CCCCC1 | 11.7 |
| CCN(CCO)Cc1ccc(-c2ccc(NS(=O)(=O)c3cccc4cccnc34)cc2)cc1 | 4.17 |
| S=C(NCCCCCN1CCC(c2c[nH]c3ccccc23)CC1)Nc1cc(Cl)cc(Cl)c1 | 3.47 |
| Cc1nc(N)nc(N)c1CCCOc1ccccc1Br | 2.08 |
| CCN(CCO)CCCC(C)Nc1ccnc2cc(Cl)ccc12 (stereo unspecified) | 0 |
| O=C(NCCCCCN1CCC(c2c[nH]c3ccccc23)CC1)Nc1cccc(I)c1 | 4.62 |
| CC1(C)N=C(N)N=C(N)N1c1cccc(Cl)c1 | 1.42 |
| N=C(N)c1ccc(-c2cc3ccc(C(=N)N)cc3[nH]2)cc1 | 0.72 |
| COC(=O)CCCCCOc1cc(Cc2cnc(N)nc2N)cc(OC)c1OC | 1.47 |
| O=C(Nc1ccc(F)cc1)NC1CCN(c2ccnc3cc(Cl)ccc23)CC1 | 1.59 |
| O=C(NC1CCCCC1)N(Cc1cccc(-c2ccc(CNCc3ccc4c(c3)OCO4)cc2)c1)C1CCN(Cc2ccccc2)CC1 | 5.84 |
| CCCCCCOc1ccc(/C(N)=N\Cc2ccccc2)c2c1CCCC2 | 13.3 |
| COc1ccc(C2CC(=O)C3=C(C2)NC(C)=C(C(=O)OC(C)C)C3c2ccccc2F)cc1OC (stereo unspecified) | -0 |

| SMILES | IFI [%] |
| --- | --- |
| CC(C)(CNCc1cccc(Oc2cccc(C(F)(F)F)c2)c1)c1nc(-c2ccnc(N)n2)c(-c2ccc(Cl)c(O)c2)[nH]1 | 4.35 |
| COc1cccc(-c2csc(C(=O)NCC3CCN(Cc4ccc(C(C)C)cc4)C3)c2)c1 (stereo unspecified) | 8 |
| COc1cccc(CN2CCCC(OC(c3ccccc3)c3ccccc3)C2)c1O (stereo unspecified) | 5.08 |
| COc1cc(OC)nc(-c2cccc(NC(=O)c3ccc4c(=O)n(CCN5CCCCC5)cnc4c3)c2)n1 | 3.03 |
| CCC(C)c1ccc(NC(=O)Nc2ccc(Cn3ncc(N4CCCNCC4)c(Cl)c3=O)cc2)cc1 (stereo unspecified) | 11.8 |
| COc1cc(CCOc2c(C)nc(N)nc2N)cc(OC)c1OC | 2.17 |
| O=C(Nc1cccc([N+](=O)[O-])c1)N(Cc1ccc(Cl)c(Cl)c1)C1CCNCC1 | 1.52 |
| OC(CNc1ccnc(Nc2cccc(Cl)c2)n1)c1ccc(C(F)(F)F)cc1 (stereo unspecified) | 11 |
| O=C(/C=C/c1ccc(Cl)c(Cl)c1)NCCCCCN1CCC(C(=O)Nc2ccc(Cl)cc2)CC1 | 12.3 |
| N#Cc1ccc(N2CCN(Cc3ccc(-c4ccc(-c5nc6ccccc6[nH]5)s4)cc3)CC2)nc1 | 2 |
| CC(O)C1CCCCN1C(=O)c1ccc(-c2cccc(-c3nc4cc(F)ccc4[nH]3)c2)cc1 (stereo unspecified) | 5.61 |
| OCCN1CCN(Cc2cccc(-c3ccc(-c4nc5cc(C(F)(F)F)ccc5[nH]4)s3)c2)CC1 | 10.7 |
| CN1CCN(CC2(Nc3nccc(NCc4ccc(Cl)cc4Cl)n3)CCCCC2)CC1 | 35.7 |
| O=C(c1ccco1)N1CCN(c2nc(-c3ccc(Cl)cc3)nc3ccccc23)CC1 | 0 |
| Cc1cc2c3c(N)nc(N)nc3ccc2n1C(C)C | 3.6 |
| CC1(C)[C@H]2CC[C@@H](CNc3nc(NCCc4c[nH]cn4)nc(NCc4cc(F)ccc4F)n3)[C@@H]1C2 | 1.44 |
| COc1cccc(NC(=O)Cn2c(C)c(C(=O)C(F)(F)F)c3ccccc32)c1 | 0.68 |
| N#Cc1ccc(-n2cc(C(=O)Nc3ccc4c(c3)CCN(C3CCC3)CC4)c(C(F)(F)F)n2)cc1 | 7.46 |
| COc1cccc(C2CCN(CCN3CCC(NC(=O)c4ccc(-c5ccc(Cl)cc5)cc4)CC3)CC2)c1 | 3.57 |
| Cc1cccc2nc(-c3cccc(-c4ccc(NC(=O)CS(C)(=O)=O)cc4)c3)[nH]c12 | 1.8 |
| Nc1nc(N)c2c(Oc3cccc(Cl)c3)cccc2n1 | 5.04 |
| Cc1nc(C)c(-c2ccc(-c3ccc(F)cc3)cc2)c(O)c1Cl | 0.78 |
